According to patent publication US6987127B2, “Regulation of NAD(P)H oxidase growth and transcription in melanoma cells” (Charlotte-Mecklenburg Hospital Authority, priority 2001, dated 2006):

Key:
[1] = test system: membrane NAD(P)H oxidase of M1619 melanoma cells; test: SOD-inhibitable lucigenin chemiluminescence (O2- generation) by 100,000 g plasma membrane fraction; format: biochemical, human; conditions: 300 units/ml, 15 μg membrane protein, 100 μmol/L NADPH, 5 minutes
[2] = test system: M1619 melanoma cells; conditions: pretreatment 15 minutes, 250 μmol/L

How did the “Lucigenin chemiluminescence of membranes + NADPH” value [1] turn out when superoxide dismutase [SOD] was run?
The value was “significantly inhibited”.

With O=c1oc2ccccc2c(O)c1Cc1c(O)c2ccccc2oc1=O [dicumarol] as the compound, how does the “Median fluorescence (DCFH oxidation to DCF)” value ([2]; untreated 685) read?
Its value is 359.

What about the “Mean fluorescence (DCFH oxidation to DCF)” value ([2]; untreated 754) of the same compound?
Its value is 396.
